Read counts are not given, so values of variants with three or more changes are uncertain.
B1: CPEB3 Ribozyme (parent)
chain: UAACAGGGGGCCACAGCAGAAGCGUUCACGUCGCAGCCCCUGUCAGAUUCUGGUGAAUCUGCGAAUUCUGCUGUAUAUCUC

Variants of: B1
Experiment: self-cleavage, relative activity (ratio to wild type); higher = more cleavage; in vitro, sequencing
In short: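 Relative activity compares each variant's cleaved/total read fraction with that of the unmutated ribozyme. To get these fractions, barcoded CPEB3 ribozyme libraries from rounds of error-prone PCR were transcribed with T7 RNA polymerase for 5 hours at 37°C and then given 15 min of DNase I treatment before EDTA was added. The RNAs were reverse transcribed with template switching and sequenced on Illumina, and DNA sequencing linked barcodes to variants. A minimum of 5 reads applied, and three batches were averaged.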

Variant	self-cleavage
UAACAGGGGGCCACAGCAGAAGCGUUCACGUCGCAACCCCUGUCUGAUUCUGGUGAAUCUACGAAUUCUGCUGUAUAUCUC	0.22
UAACAGGGGGCCACAGCAGAAGCGUUCACGUCGCAACCCCUGUCUGACUGUGGUGAAUCUGCGAAUUCUGCUGUAUAUCUC	0.11
UAACAGGGGGCCACAGCAGAAGCGUUCACGUCGCAACCCCUGUCAGGUUCUGGUGGAUCUGCGAAUUCUGCUGUAUAUCUC	0.43
UAACAGGGGGCCACAGCAGAAGCGUUCACGUCGCAACCCCUGUCAGGUUCUGGUGAAUCUGCGAAUUCUGCUGUAUGCCUC	0.31
UAACAGGGGGCCACAGCAGAAGCGUUCACGUCGCAACCCCUGUCAGGUUCUGGUGAAUCUGCGAAUUCUGCUGUAUACCUC	0.09
UAACAGGGGGCCACAGCAGAAGCGUUCACGUCGCAACCCCUGUCAGAUUCUGGUGGAUCAGCGAAUUCUGCUGUGUAUCUC	0.04
UAACAGGGGGCCACAGCAGAAGCGUUCACGUCGCAACCCCUGUCAGAUUCUGGUGGAUCCGCGAAUUCUGCUAUAUAUCUC	0.17
UAACAGGGGGCCACAGCAGAAGCGUUCACGUCGCAACCCCUGUCAGAUUCUGGUGAGCCCGCGAAUUCUGCUGCACAUCUC	0.05
UAACAGGGGGCCACAGCAGAAGCGUUCACGUCGCAACCCCUGUCAGAUUCUGGUGAAUCUGCGUAUUCUGCUGCUUAUCUC	0.48
UAACAGGGGGCCACAGCAGAAGCGUUCACGUCGCAACCCCUGUCAGAUUCUGGUGAAUCUGCGAAUUCUGCUGUGUACCUC	0.07
UAACAGGGGGCCACAGCAGAAGCGUUCACGUCGCAACUCCUGUCAGAUUCUGGUGAAUCUGCGAAUUCUGCUGCAUAUCUC	0.15
UAACAGGGGGCCACAGCAGAAGCGUUCACGUCGCAACCCCUGUCAGAUUCUGAUGAAUCUGCGAAUUCUGCUGUUUAUCUC	0.21
UAACAGGGGGCCACAGCAGAAGCGUUCACGUCGCAACCCCAGUCAGAUUCUGGUGAAUCUGCGAAUUCUGCUGUGUAUCUC	0.08
UAACAGGGGGCCACAGCAGAAGCGUUCACGUCGCAACCCCUGCCAGAUUCUGGAGAAUCUGCGAAUUCUGCUGUAUAUCUC	0.11
UAACAGGGGGCCACAGCAGAAGCGUUCACGUCGCAACCCCUGGCAGAUUCUGGUGAACCUGCGAAUUCUGCUGUAUAUCUC	0.05
UAACAGGGGGCCACAGCAGAAGCGUUCACGUCGCAACCCCUGUCAGAUCCCGGUGGAUCUGCGAAUUCUGCUGUGUAUCUC	0.07
UAACAGGGGGCCACAGCAGAAGCGUUCACGUCGCAACCCCUGUCAGAUUCAGGUGAAUCUGCGAAUUCUGCUGUACAUCUC	0.22
UAACAGGGGGCCACAGCAGAAGCGUUCACGUCGCAACCCCUGUCAGAUUCCUGUGAAUCUGCGGAUUCUGCUGUAUGUCUC	0.14
UAACAGGGGGCCACAGCAGAAGCGUUCACGUCGCAACCCCUGUCAGAUUCCGGUGAAUCAGCGAACUCUGCUGUAUAUCUC	0.29
UAACAGGGGGCCACAGCAGAAGCGUUCACGUCGCAACCCCUGUCAGAUUCGGGUGAAUCUGCGAAUUCUGCUGUAUAUCAC	0.28
UAACAGGGGGCCACAGCAGAAGCGUUCACGUCGCAACCCCUGUCAGAUUCUGGUGAACCUACGAAUUCUGCUGUAUAUCUC	0.11
UAACAGGGGGCCACAGCAGAAGCGUUCACGUCGCAACCCCUGUCAGAUUCUGGUGAACCUGCGAAUUCUGCUGUACAUCCC	0.12
UAACAGGGGGCCACAGCAGAAGCGUUCACGUCGCAACCCCUGUCAGAUUCUGGUGAAUCCGCGAACUCUGCCGUAUAUCUC	0.06

Variant	self-cleavage
UAACAGGGGGCCACAGCAGAAGCGUUCACGUCGCAACCCCUGUCAGAUUCUGGUGAAUCUGCGAAAUCUGCUGUACAUCUC	0.09
UAACAGGGGGCCACAGCAGAAGCGUUCACGUCGCAACCCCUGUCAGAUUCUGGUGAAUCUGCGAAUUCUGCAGUACAUCUC	0.1
UAACAGGGGGCCACAGCAGAAGCGUUCACGUCGCAACCCCUGUCAGAUUCUGGUGAAUCUGCGAAUUCUGCUGCAUAUCCC	0.2
UAACAGGGGGCCACAGCAGAAGCGUUCACGUCGCACCCCCUGUCUGAUUCUGGUGGAUCUGCGAAUUCUGCUGUAUAUCUC	0.17
UAACAGGGGGCCACAGCAGAAGCGUUCACGUCGCACCCCCCGUCAUGUUCUGGUGAAUCUGCGAAUUCUGCUGUAUAUCUC	0.08
UAACAGGGGGCCACAGCAGAAGCGUUCACGUCGCACCCCCUGCCAGAUUCUGGGGAAUCUGCGAAUGCUGCUGUACAUCUC	0.11
UAACAGGGGGCCACAGCAGAAGCGUUCACGUCGCACCCCCUGUCAGAUUCCAGUGUAUCUGCGAAUUCUGCUGUAUAUCUC	0.08
UAACAGGGGGCCACAGCAGAAGCGUUCACGUCGCACCCCCUGUCAGAUUCUGGUGAAUCAGCGAAUCCUGCUGAAUAUCUC	0.13
UAACAGGGGGCCACAGCAGAAGCGUUCACGUCGCAUCCCCUGUCAGUUUAUGGUGAAUCUGCGGACUCUGCUGUAUAUCUC	0.12
UAACAGGGGGCCACAGCAGAAGCGUUCACGUCGCAUCCCCUGUCAGAUUCUGGUGUAUCAGCGAGUUCUGCUGUAUAUCUC	0.08
UAACAGGGGGCCACAGCAGAAGCGUUCACGUCGCAUCCCCUGUCAGAUUCUGGUGAAUCUGCGGGUUCUGCUGUAUAUCUC	0.32
UAACAGGGGGCCACAGCAGAAGCGUUCACGUCGCAUCCCUUGUCCGAUUCUGGUGAAUCUGCGAAUUCUGCUGUAUAUCUC	0.27
UAACAGGGGGCCACAGCAGAAGCGUUCACGUCGCAUCCCCUGUAAGAUUCUGUUGAAUCUGCGAGUUCUGCUGUAUAUCUC	0.1
UAACAGGGGGCCACAGCAGAAGCGUUCACGUCGCAUCCCCUGUCAGAUUCUGGUGAAUCUGUGUAUUCUGCUGUAUAUCUC	0.15
UAACAGGGGGCCACAGCAGAAGCGUUCACGUCGCAUCCCCUGCCAGAUACUGGUGAAUCUGCGAAUUCUGCUGAAUACCUC	0.07
UAACAGGGGGCCACAGCAGAAGCGUUCACGUCGCAUCCCCUGUCAGAUUCUGGUGAAUCUGCGAAUUCUGCAGUAUUUCUC	0.09
UAACAGGGGGCCACAGCAGAAGCGUUCACGUCGCAGACCCUGACUGAUUCUGGUGUACCUGCGAAUCCUGCCGUAUAUCUC	0.05
UAACAGGGGGCCACAGCAGAAGCGUUCACGUCGCAGACCCUGACAGAUUCCGGUGAAUCUGCGAAUUCUGCUGUAUAUCUC	0.07
UAACAGGGGGCCACAGCAGAAGCGUUCACGUCGCAGACCCUGCCAGAUUCUGGUGGAUCUGCGUAUUCUGCUGUAUAUCUC	0.09
UAACAGGGGGCCACAGCAGAAGCGUUCACGUCGCAGACCCUGCCAGAUUCUGGUGAAUCCGCGAAUUCUGCUGUAUAUCUC	0.18
UAACAGGGGGCCACAGCAGAAGCGUUCACGUCGCAGACCCUGUCAGAUUCUGGUGAAUCUGCGAAUUCUGCUGAGUACCUC	0.54
UAACAGGGGGCCACAGCAGAAGCGUUCACGUCGCAGACCCUGUCAGAUUCUGGUGAAUCUGCGAAUUCUGCUGCAAAUCUC	0.4
UAACAGGGGGCCACAGCAGAAGCGUUCACGUCGCAGGCCCUGUCGGGUUCUGGUGAAUCUGCGAAUUCUGCUGUAUAUCUC	0.19

Variant	self-cleavage
UAACAGGGGGCCACAGCAGAAGCGUUCACGUCGCAGGCCCUGUCAGGUUCAGGUGAAUCUGCGAAUUCUGCUGUAUACCUC	0.13
UAACAGGGGGCCACAGCAGAAGCGUUCACGUCGCAGGCCCUGUCAGAUUCUGGUGGAUCUGCGAAUUCUGCAGUAUAUCUC	0.28
UAACAGGGGGCCACAGCAGAAGCGUUCACGUCGCAGGCCCUGUCAGAUUCUGGUGAAUCUGCGAAUUCUGCUGUGUAUCGC	0.52
UAACAGGGGGCCACAGCAGAAGCGUUCACGUCGCAGGCCCUGCCAGAUUCUGGUGAAUCUGCGAAUUCUGCUGUAUAUUUC	0.27
UAACAGGGGGCCACAGCAGAAGCGUUCACGUCGCAGGCCCUGUCAGAUACAGGCGAAUCUGCGAAUUCUGCUGUAUAUCCC	0.13
UAACAGGGGGCCACAGCAGAAGCGUUCACGUCGCAGGCCCUGUCAGAUCCUGGUGAACCUGCGAAUUCUGCUGUAUAUCUC	0.07
UAACAGGGGGCCACAGCAGAAGCGUUCACGUCGCAGGCCCUGUCAGAUUCUGGAGAAUCUGCGAAUUCCGUUGUAUACCUG	0.23
UAACAGGGGGCCACAGCAGAAGCGUUCACGUCGCAGUCCCUGUCCGAUUCUGGUGAAUCUGCGAAUUCUGCAGUAUAUCUC	0.09
UAACAGGGGGCCACAGCAGAAGCGUUCACGUCGCAGUCCCUGUCGGAUUCUGGUGAAUCUGCGGAUUCUGCUGUAUAUCUC	0.3
UAACAGGGGGCCACAGCAGAAGCGUUCACGUCGCAGUCCCUGUCGGAUUCUUGUGAACCUGCGAAUUCGGCUGUAUAUCUC	0.11
UAACAGGGGGCCACAGCAGAAGCGUUCACGUCGCAGUCCCUGUCGGAUUCUGAUGAAUCUGCGAAUUCUGCAGUAUAUCUC	0.24
UAACAGGGGGCCACAGCAGAAGCGUUCACGUCGCAGUCCCUGUCGGAUUCUGGUGAAUCCGCGCAUUCUGCUGUAUAUUUC	0.04
UAACAGGGGGCCACAGCAGAAGCGUUCACGUCGCAGUCCCUGUCAGGUUCUGGUGAAUCUGCUAAUUCUGCUGUAUAUCUC	0.65
UAACAGGGGGCCACAGCAGAAGCGUUCACGUCGCAGUCCCUGUCAGGCUCUGGUGAAUCUGCGAAUUCUGCUGUAUAUCUC	0.18
UAACAGGGGGCCACAGCAGAAGCGUUCACGUCGCAGUCCCUGUCAGUUUCUGGUGAAUCUGCGAAAUCUGCUGUAUAUCUC	0.1
UAACAGGGGGCCACAGCAGAAGCGUUCACGUCGCAGUCCCUGUCAGAUUCUGGUGUAUCUGCGAAUUCUGCUGUAUAUCUA	0.39
UAACAGGGGGCCACAGCAGAAGCGUUCACGUCGCAGUCCCUGUCAGAUUCUGGUGAUUCUGCGAAUUCUGCUGAAUAUCUC	0.4
UAACAGGGGGCCACAGCAGAAGCGUUCACGUCGCAGUCCCUGUCAGAUUCUGGUGAAUCUGCGGAUUCCGCUGUAUAUCUC	0.36
UAACAGGGGGCCACAGCAGAAGCGUUCACGUCGCAGUCCCUGUCAGAUUCUGGUGAAUCUGCGAUUUCUGCUGUAUACCUC	0.05
UAACAGGGGGCCACAGCAGAAGCGUUCACGUCGCAGUGCCUGUCAGAUCCAGGUGAAUCUGCGAAUUCUGCUGUAUAUCUC	0.13
UAACAGGGGGCCACAGCAGAAGCGUUCACGUCGCAGUCCCUGUCACAUUCUGGUGAAUCUGCGAAUUCUGCUGUACAUCUC	0.17
UAACAGGGGGCCACAGCAGAAGCGUUCACGUCGCAGUCCCUGUCAGAUUCUAGUGAAUCUGCGAAUUCUGCUGUAUCUCUC	0.54

Source: the RNAGym collection of RNA variant scans (doi:10.1093/nar/gkz1192)
